The results in this text go back to PMC5892938.

This is one part of the list. The source does not settle which construct or isoform was used.

The experiment deals with GST-SBP-ILF3 (Homo sapiens) (UniProt Q12906). As to the kind of experiment: targeted RNA Bind-n-Seq. The note with it: RBNS binding buffer: 25 mM Tris pH 7.5, 150 mM KCl, 3 mM MgCl2, 0.1% Tween, 0.5 mg/mL BSA, 1 mM DTT; 27 nM protein, 750 pM RNA pool; temperature not stated; high values mean tight binding; sequences stand for … in GGGUAAAAGCGAGGUGAA…CGGGACAAGUAUUAUGGG
For “GUGUGUUGUGUUGGCCUCUAACACAACGCG [gtspaired]”, the binding signal (log2 fold change) is -0.724.

As for “GGUGGUUGUGUUGGUCCCUAACACAACUAC [gtspaired]”, the binding signal (log2 fold change) was -0.552.

“UUUUUUUUUUGAGAGCGGAUCGCUCUCCUA [tttttgagapaired]”: the binding signal (log2 fold change) is -0.0456.

Regarding “UUUUUUUUUUGAGAACGGGACGUUCUCCAG [tttttgagapaired]”, the binding signal (log2 fold change) came to 0.446.

Consider “UUUUUUUUUUGAGAGGGCCACCCUCUCCUG [tttttgagapaired]”, for which the binding signal (log2 fold change) was determined as 0.93.

Turning to “GUGGUUGGUGUUGGCGUCUAACACCGACCG [gtspaired]”, the binding signal (log2 fold change) was -0.72.

As for “UUUUUUUUUUGAGACUGAUCCAGUCUCCGG [tttttgagapaired]”, the binding signal (log2 fold change) is 0.276.

As for “GUGUUGUGUGUUGGCCCCUAACACACAGCA [gtspaired]”, the binding signal (log2 fold change) was 0.0458.

For “UUUUUUUUUUGAGACCGGACCGGUCUCCUG [tttttgagapaired]”, the binding signal (log2 fold change) is 0.683.

In the case of “GUGGUGUGUGUUGGUCCCUAACACAUACCA [gtspaired]”, the binding signal (log2 fold change) was -0.526.

Take “GGUUGUGGUGUUGGAUUCUAACACCGCAGC [gtspaired]”: the binding signal (log2 fold change) was -0.31.

For the sequence “UUUUUUUUUUGAGACCGGUCCGGUCUCCUG [tttttgagapaired]”, the binding signal (log2 fold change) turned out to be 0.515.

In the case of “GUGGUGUGUGUUGGCAUCUAACACAUACCA [gtspaired]”, the binding signal (log2 fold change) is -0.48.

On to “UUUUUUUUUUGAGAACGAAUCGUUCUCCUA [tttttgagapaired]”, for which the binding signal (log2 fold change) is -0.554.

Regarding “GGUGUGUGUGUUGGCCCCUAACACAUACAC [gtspaired]”, the binding signal (log2 fold change) came to 0.031.

On to “UUUUUUUUUUGAGACGGUUUCCGUUUCCUA [tttttgagapaired]”, for which the binding signal (log2 fold change) was 0.253.

For “GUUGUGUGUGUUGGCCUCUAACACACGCAA [gtspaired]”, the binding signal (log2 fold change) was -1.18.

As for “GGUGGUUGUGUUGGUCCCUAACACAGCCGC [gtspaired]”, the binding signal (log2 fold change) is -0.23.

“GUGUGUGGUGUUGGCUCCUAACACCAUACA [gtspaired]”: the binding signal (log2 fold change) was -0.731.

For the sequence “GUGGUUGGUGUUGGACCCUAACACCAGCCG [gtspaired]”, the binding signal (log2 fold change) is -0.429.

With “UUUUUUUUUUGAGAUGGCGACCAUCUUCUA [tttttgagapaired]”, the binding signal (log2 fold change) was determined as 0.222.

As to “UUUUUUUUUUGAGACUGCGUCAGUUUCCGG [tttttgagapaired]”, the binding signal (log2 fold change) is 0.883.

For “UUUUUUUUUUGAGACGGCGACCGUCUCCUA [tttttgagapaired]”, the binding signal (log2 fold change) amounted to 0.3.

Regarding “GUGUGUUGUGUUGGCUCCUAACACAACGCG [gtspaired]”, the binding signal (log2 fold change) was -0.401.

As to “GUGUGUUGUGUUGGUGCCUAACACAGCACA [gtspaired]”, the binding signal (log2 fold change) is -0.553.

Turning to “GUUGGUGGUGUUGGCGUCUAACACCGCCAG [gtspaired]”, the binding signal (log2 fold change) is -0.717.

On to “UUUUUUUUUUGAGACGGCAGCCGUCUCCAG [tttttgagapaired]”, for which the binding signal (log2 fold change) amounted to 0.697.

Turning to “UUUUUUUUUUGAGACCGAAACGGUCUCCUA [tttttgagapaired]”, the binding signal (log2 fold change) was determined as 0.266.

For the sequence “UUUUUUUUUUGAGACCGAUCCGGUCUUCUA [tttttgagapaired]”, the binding signal (log2 fold change) is 0.32.

As to “GUGGUGUGUGUUGGAAUCUAACACAUACCA [gtspaired]”, the binding signal (log2 fold change) is -0.578.

As for “UUUUUUUUUUGAGAGCGGUGCGCUCUUCUA [tttttgagapaired]”, the binding signal (log2 fold change) stood at 0.36.

As for “UUUUUUUUUUGAGACUGAAGCAGUUUCCUA [tttttgagapaired]”, the binding signal (log2 fold change) stood at 0.333.

Turning to “GUGUGUGGUGUUGGCCUCUAACACCGCAUA [gtspaired]”, the binding signal (log2 fold change) was -0.489.

For “UUUUUUUUUUGAGACGGCCACCGUCUUCUG [tttttgagapaired]”, the binding signal (log2 fold change) is 0.923.

For the sequence “UUUUUUUUUUGAGACCGGAGCGGUCUCCUG [tttttgagapaired]”, the binding signal (log2 fold change) was found to be 0.778.

As for “UUUUUUUUUUGAGACGGGAGCUGUCUCCUA [tttttgagapaired]”, the binding signal (log2 fold change) worked out at 0.848.

As for “GUGUGGUGUGUUGGUCCCUAACACACUACG [gtspaired]”, the binding signal (log2 fold change) was -0.488.

As to “GUGUGUUGUGUUGGCAUCUAACACAACGCG [gtspaired]”, the binding signal (log2 fold change) was -0.486.

For “GUUGGUGGUGUUGGCUCCUAACACCGCCGA [gtspaired]”, the binding signal (log2 fold change) is -0.563.

In the case of “UUUUUUUUUUGAGAGUGCUACAUUCUCCUA [tttttgagapaired]”, the binding signal (log2 fold change) was 0.148.

For “UUUUUUUUUUGAGAUGGGUACCAUCUCCUG [tttttgagapaired]”, the binding signal (log2 fold change) stood at 0.279.

On to “UUUUUUUUUUGAGACGGAGGCCGUCUUCUA [tttttgagapaired]”, for which the binding signal (log2 fold change) is 0.657.

As for “UUUUUUUUUUGAGACGGACUCCGUUUCCAG [tttttgagapaired]”, the binding signal (log2 fold change) worked out at 0.315.

For the sequence “GGUGGUUGUGUUGGACUCUAACACAAUCGC [gtspaired]”, the binding signal (log2 fold change) was -1.03.

Regarding “UUUUUUUUUUGAGACUGUGUCAGUCUCCGG [tttttgagapaired]”, the binding signal (log2 fold change) is 0.56.

As for “UUUUUUUUUUGAGAGCGGGGCGCUCUCCGG [tttttgagapaired]”, the binding signal (log2 fold change) came to 0.375.

Turning to “UUUUUUUUUUGAGAUGGAGACCAUCUCCAG [tttttgagapaired]”, the binding signal (log2 fold change) is 0.349.

Consider “UUUUUUUUUUGAGAGUGCAACAUUCUCCUA [tttttgagapaired]”, for which the binding signal (log2 fold change) came out at 0.0503.

On to “UUUUUUUUUUGAGACCGAGUCGGUCUCCUA [tttttgagapaired]”, for which the binding signal (log2 fold change) was found to be 0.139.

Take “GUGUGUUGUGUUGGAGCCUAACACAGCGCA [gtspaired]”: the binding signal (log2 fold change) was -0.461.

In the case of “UUUUUUUUUUGAGAGGGGUACCCUUUCCAG [tttttgagapaired]”, the binding signal (log2 fold change) stood at 0.55.

For the sequence “UUUUUUUUUUGAGACCGGAUCGGUCUCCUA [tttttgagapaired]”, the binding signal (log2 fold change) was 0.163.

“UUUUUUUUUUGAGAUGGGCACCAUCUCCGG [tttttgagapaired]”: the binding signal (log2 fold change) came out at 0.394.

As for “GUGGUGUGUGUUGGAACCUAACACACGCCG [gtspaired]”, the binding signal (log2 fold change) was -1.15.

As to “UUUUUUUUUUGAGAUGGGAGCCAUCUCCUA [tttttgagapaired]”, the binding signal (log2 fold change) stood at 0.358.

Turning to “UUUUUUUUUUGAGAUCGGCACGAUCUCCUG [tttttgagapaired]”, the binding signal (log2 fold change) is 0.538.

In the case of “UUUUUUUUUUGAGACUGUGACAGUCUUCUA [tttttgagapaired]”, the binding signal (log2 fold change) worked out at 0.515.

“UUUUUUUUUUGAGAUGGAAACCAUCUUCUA [tttttgagapaired]”: the binding signal (log2 fold change) is -0.0915.

As for “GUUGUGUGUGUUGGACUCUAACACACGCGA [gtspaired]”, the binding signal (log2 fold change) is -0.588.

“UUUUUUUUUUGAGACGGACGCCGUCUCCAG [tttttgagapaired]”: the binding signal (log2 fold change) worked out at 0.576.

Take “UUUUUUUUUUGAGACCGUCACGGUCUCCUA [tttttgagapaired]”: the binding signal (log2 fold change) was 0.494.

On to “UUUUUUUUUUGAGAUGGGAACUAUCUUCUA [tttttgagapaired]”, for which the binding signal (log2 fold change) stood at 0.24.

Regarding “UUUUUUUUUUGAGAUCGAGACGAUUUCCAG [tttttgagapaired]”, the binding signal (log2 fold change) came to 0.187.

Turning to “GUGUGUGGUGUUGGCUUCUAACACCAUAUA [gtspaired]”, the binding signal (log2 fold change) was -0.746.

Consider “UUUUUUUUUUGAGAACGACGCGUUCUCCAG [tttttgagapaired]”, for which the binding signal (log2 fold change) was found to be 0.37.

In the case of “GUGGUGUGUGUUGGAAUCUAACACACAUCG [gtspaired]”, the binding signal (log2 fold change) is -0.962.

As for “UUUUUUUUUUGAGACGGGAUCUGUCUCCAG [tttttgagapaired]”, the binding signal (log2 fold change) was determined as 0.511.

In the case of “UUUUUUUUUUGAGAUGGUAUCCAUCUCCGG [tttttgagapaired]”, the binding signal (log2 fold change) is 0.0341.

With “UUUUUUUUUUGAGACCGGACCGGUCUCCAG [tttttgagapaired]”, the binding signal (log2 fold change) was 0.937.

Take “GUGUGUGGUGUUGGAUCCUAACACCAUACG [gtspaired]”: the binding signal (log2 fold change) was -0.745.

As to “GUGUGUUGUGUUGGAUUCUAACACAGCGCG [gtspaired]”, the binding signal (log2 fold change) was -0.59.

For the sequence “UUUUUUUUUUGAGACCGGUUCGGUCUUCUA [tttttgagapaired]”, the binding signal (log2 fold change) came to 0.418.

Turning to “GUGGUGUGUGUUGGCUCCUAACACACAUCA [gtspaired]”, the binding signal (log2 fold change) is -0.217.

On to “GUGUGGUGUGUUGGACCCUAACACACCGCA [gtspaired]”, for which the binding signal (log2 fold change) is -0.203.

Turning to “UUUUUUUUUUGAGACUGGGACAGUCUCCUA [tttttgagapaired]”, the binding signal (log2 fold change) stood at 0.119.

As for “UUUUUUUUUUGAGACGGCAACCGUUUCCGG [tttttgagapaired]”, the binding signal (log2 fold change) is 0.654.

For the sequence “GUUGGUGGUGUUGGUCCCUAACACCAUCAA [gtspaired]”, the binding signal (log2 fold change) is -0.575.

Consider “UUUUUUUUUUGAGACGGGCGCCGUCUCCGG [tttttgagapaired]”, for which the binding signal (log2 fold change) is 0.632.

As to “UUUUUUUUUUGAGAGCGAGACGCUCUCCAG [tttttgagapaired]”, the binding signal (log2 fold change) is -0.0979.

Consider “UUUUUUUUUUGAGAGGGCGCCCCUCUCCAG [tttttgagapaired]”, for which the binding signal (log2 fold change) is 0.764.

With “UUUUUUUUUUGAGAGCGGUGCGUUCUCCAG [tttttgagapaired]”, the binding signal (log2 fold change) stood at 0.389.

With “UUUUUUUUUUGAGACCGUUUCGGUCUCCGG [tttttgagapaired]”, the binding signal (log2 fold change) was 0.313.

With “UUCUCUCUUCCUCCAGGGGAGGAGGAGGGA [ctspaired]”, the binding signal (log2 fold change) is -0.16.

For “GUGUGGUGUGUUGGCGCCUAACACAUCGCA [gtspaired]”, the binding signal (log2 fold change) was -0.538.

In the case of “UUUUUUUUUUGAGAGGGUACCCCUCUCCAG [tttttgagapaired]”, the binding signal (log2 fold change) was found to be 0.225.

For “UUUUUUUUUUGAGAUGGCAGCUAUCUCCGG [tttttgagapaired]”, the binding signal (log2 fold change) was determined as 0.466.

With “UUUUUUUUUUGAGACGGAAGCUGUCUCCUA [tttttgagapaired]”, the binding signal (log2 fold change) came out at 0.653.

Turning to “GUGGUUGGUGUUGGCACCUAACACCGACCG [gtspaired]”, the binding signal (log2 fold change) is -0.467.

As for “UUUUUUUUUUGAGAACGAAACGUUCUCCUA [tttttgagapaired]”, the binding signal (log2 fold change) was -0.304.

Consider “UUUUUUUUUUGAGAGCGGGACGCUCUCCGG [tttttgagapaired]”, for which the binding signal (log2 fold change) stood at 0.0594.

Take “GUGUGUUGUGUUGGUAUCUAACACAGCGCG [gtspaired]”: the binding signal (log2 fold change) was -0.814.

“GUGUGUUGUGUUGGCGUCUAACACAGCACA [gtspaired]”: the binding signal (log2 fold change) is -0.428.

As to “UUUUUUUUUUGAGAUCGAAGCGAUCUCCUA [tttttgagapaired]”, the binding signal (log2 fold change) was -0.189.

With “GUGUGGUGUGUUGGAGUCUAACACAUCACG [gtspaired]”, the binding signal (log2 fold change) was -0.787.

For “GUGUGGUGUGUUGGCAUCUAACACAUCACG [gtspaired]”, the binding signal (log2 fold change) was -1.02.

On to “UUUUUUUUUUGAGACGGCAUCCGUCUCCGG [tttttgagapaired]”, for which the binding signal (log2 fold change) is 0.654.

“UUUUUUUUUUGAGAUCGAAUCGAUCUCCUG [tttttgagapaired]”: the binding signal (log2 fold change) worked out at 0.16.

Regarding “GUGUGGUGUGUUGGCGCCUAACACACCGCA [gtspaired]”, the binding signal (log2 fold change) was -0.315.

Regarding “UUUUUUUUUUGAGAUGGACUCUAUCUCCAG [tttttgagapaired]”, the binding signal (log2 fold change) is 0.188.

“UUUUUUUUUUGAGACGGAUACCGUCUCCAG [tttttgagapaired]”: the binding signal (log2 fold change) is 0.421.

Consider “UUUUUUUUUUGAGACGGACCCCGUCUCCUA [tttttgagapaired]”, for which the binding signal (log2 fold change) stood at 0.82.

In the case of “UUUUUUUUUUGAGAUCGACGCGAUCUCCUA [tttttgagapaired]”, the binding signal (log2 fold change) worked out at 0.335.

For the sequence “GUGUGUGGUGUUGGCGUCUAACACCACGCG [gtspaired]”, the binding signal (log2 fold change) is -0.56.
